Results: patent US20150320880A1, “ANTIBODY DRUG CONJUGATES” (NOVARTIS AG, priority 2013, published 2015)

What was measured:
[1] = molecular target: T1, human cKIT ECD (Homo sapiens, UniProt P10721); assay: SPR (Biacore 2000) affinity measurement; format: binding; conditions: 25° C.
T1 construct: Human cKIT tr. variant 2, residues 26-520-TAG; made in house; host or cells: HEK293 derived cell lines (293FS), transient transfection
Experimental: (§1) Affinity of the antibodies to cKIT species orthologues and also to cKIT was determined using SPR technology using a Biacore® 2000 instrument (GE Healthcare, Pittsburgh, Pa.) and with CM5 sensor chips.
(§2) Briefly, HBS-P (0.01 M HEPES, pH 7.4, 0.15 M NaCl, 0.005% Surfactant P20) supplemented with 2% Odyssey® blocking buffer (Li-Cor Biosciences, Lincoln, Nebr.) was used as the running buffer for all the experiments. The immobilization level and analyte interactions were measured by response unit (RU). Pilot experiments were performed to test and confirm the feasibility of the immobilization of the anti-human Fc antibody (Catalog number BR100839, GE Healthcare, Pittsburgh, Pa.) and the capture of the test antibodies.
(§3) For kinetic measurements, the experiments were performed in which the antibodies were captured to the sensor chip surface via the immobilized anti-human Fc antibody and the ability of the cKIT proteins to bind in free solution was determined Briefly, 25 μg/ml of anti-human Fc antibody at pH 5 was immobilized on a CM5 sensor chip through amine coupling at flow rate of 5 μl/minute on all two flow cells to reach 10,500 RUs. 0.1-1 μg/ml of test antibodies were then injected at 10 μl/min for 1 minute. Captured levels of the antibodies were generally kept below 200 RUs. Subsequently, 3.125-50 nM of cKIT receptor extracellular domains (ECD) were diluted in a 2-fold series and injected at a flow rate of 40 μl/min for 3 min over both reference and test flow cells. Table of tested ECDs is listed below. Dissociation of the binding was followed for 10 min. After each injection cycle, the chip surface was regenerated with 3 M MgCl2 at 10 μl/min for 30 s.

[2] = molecular target: mouse cKIT ECD; assay: SPR (Biacore 2000) affinity measurement; format: binding; conditions: 25° C.
Experimental: as §1, §2, §3

[3] = tested on: GIST-T1, GIST430, NCI-H526, NCI-H1048, CMK11-5 and Uke-1 cells; assay: Proliferation assay of cKIT-MCC-DM1 ADCs on GIST, SCLC and AML cell lines, Example 11; format: cell-based; conditions: 5 to 8 days, IgG-MCC-DM1 conjugate as control (FIGS. 4-9)
Experimental: Following conjugation to the MCC-DM1 linker-payload, the ability of the antibody drug conjugates (ADCs) to inhibit the proliferation of AML, SCLC and GIST cell lines was determined. For a listing of the cells used in these experiments by supplier see Example 10 above.
Briefly, cells were cultured in a tissue culture incubator at 37° C. with 5% CO2 in culture medium as recommended by the supplier. On the day of the assay, cells were washed twice with PBS (Cellgro, Cat #21-031-CV, Corning Tewksbury, Mass.), prior to being treated with 0.1% trypsin-EDTA (in-house technical services) for 5 min and resuspended in the recommended culture medium. Cells were then counted and seeded in 96 well plates (Costar catalog #3603, Corning, Tewksbury, Mass.) at densities of 5,000 cells/well for AML and SCLC cells and 10,000 cells/well for GIST cells in 100 μl of cell culture medium. […] Following this incubation, 100 μl/well of Cell titer Glo® reagent (Promega catalog # G7573, Promega, Madison, Wis.) was added to the day 0 plates, which were then shaken gently for 2 min, incubated for 10 min, and the resulting luminescence intensity was measured using a Perkin Elmer Wallac Microbeta® Trilux plate reader (Perkin Elmer, Waltham, Mass.). […] Following this incubation period, relative cell viability was determined via the addition of Cell titer Glo® reagent as described above. […]

[4] = tested on: MO7e cells grown in SCF; assay: Mo7e proliferation in presence of SCF, Example 17; format: cell-based; conditions: 10 ng/ml SCF, 5 days, 0.0009-68 nM
Experimental: (§4) To evaluate the potential antagonistic properties of the naked antibodies and the ability of the antibody drug conjugates (ADCs) to inhibit the proliferation of a cKIT-expressing cell line, MO7e (DSMZ, Catalog # ACC-104, Braunschweig, Del.) were grown in the presence or absence of cKIT ligand, Stem Cell Factor (SCF), for survival. MO7e cells were grown in either 10 ng/ml human granulocyte-macrophage colony-stimulating factor GM-CSF (R&D Systems Cat#215-GM, Minneapolis, Minn.) or 10 ng/ml human Stem Cell Factor SCF (R&D Systems Cat#255-SC) prior to seeding in 96 well plates (Costar Cat #3904, Corning, Tewksbury, Mass.) at 5000 cells/well in 100 μl dilution medium. A duplicate plate was generated for a day 0 measurement and all plates were incubated in a tissue culture incubator at 37° C. with 5% CO2 overnight. […] Assay plates were shaken gently for 20 min and the resulting luminescence intensity was measured using a Perkin Elmer 1450 Microbeta TriLux® plate reader (Perkin Elmer, Waltham, Mass.). […] Following this incubation period, relative cell viability was determined via the addition of Cell titer Glo reagent as described above. The effect of the ADCs on cell proliferation was calculated using the average of the duplicates as follows: (% Inhibition=(ADC or Ab treated)/(untreated)*100) The % inhibition data was fitted to a 4-parameter logistic equation and IC50 values were determined.

[5] = tested on: surface cKIT on GIST-T1 cells; assay: cKIT Ab-mediated internalization by flow cytometry; format: cell-based; conditions: 10 μg/ml, 30 min to 24 hr at 37° C.
Experimental: The kinetics of cKIT antibody mediated internalization was evaluated by treating with antibody in a cell monolayer using a temperature shift method and flow cytometry readout. GIST-T1 (kindly provided by Dr. Takahiro Taguchi, Kochi U., Japan) cells were seeded at 2.5×10E5 cells/well in five 12-well tissue culture treated plates (BD Falcon 353043). The cells were incubated in a tissue culture incubator at 37° C. with 5% CO2 overnight. The following day medium was removed and replaced with 450 μl fresh medium. […] All cells were incubated for 1 hr on ice, followed by two washes with 1 mL 1× Phosphate buffered saline (PBS) and resuspended in 500 μl cell culture medium. Plates #2-5 were transferred to 37° C. and harvested at time points; 30 min, 2 hr, 4 hr and 24 hr at 37° C. with 5% CO2. 100 μl of cell dissociation buffer (Gibco Cat#13150-016, Life Technologies, Carlsbad, Calif.) was added to plate#1 (4° C. binding control) and incubated at 37° C. until cells were detached. Cells were neutralized with 100 μl of medium and transferred to a 96 well V-bottom tissue culture treated plate (Costar 3894). […] The following day, all samples were analyzed using the BD FACSCanto II® equipment using a HTS system (BD Biosciences, San Jose, Calif.). Samples were analyzed with FlowJo software to obtain the Geometric Mean values of fluorescence for the Phycoerythrin channel. […]

[6] = tested on: cKIT on normal human CD34+ bone marrow cells; assay: cKIT receptor internalization on bone marrow cells by flow cytometry; format: cell-based; conditions: 10 μg/ml, 0-240 min
Experimental: In another internalization experiment, the impact of NEG085 on cKIT receptor levels was evaluated on human bone marrow cells. Normal human CD34+ bone marrow cells (All Cells, Cat #ABMO22F, Emeryville, Calif.) were thawed and washed with 10 mL of StemPro®-34 SFM medium (Gibco, Life Technologies, Carlsbad, Calif.). Cells were resuspended in 1.25 mL of StemPro-34 SFM medium at 4×10^5 cells/mL and split equally into two tubes. […] 100 μL of cell suspension was collected at each timepoint (0, 15, 30, 60, 120, and 240 min) from each condition, and placed into an ice cold collection tube to cease internalization. Cells were washed with 3 mL of ice-cold FBS stain buffer and resuspended in 100 μL of FBS stain buffer. […] of 104D2-BV421 (mouse anti-human IgG1 k, Biolegend, San Diego Calif.) was added to each tube and incubated on ice for 1 hour. Following another wash with FBS stain buffer, total cKIT receptors were measured by flow cytometry by assessing the mean fluorescence intensity of BV421 on a FACS Canto II® (BD Biosciences, San Jose, Calif.).

[7] = tested on: MO7e cells grown in GM-CSF; assay: Mo7e proliferation in GM-CSF (SCF-independent), Example 17; format: cell-based; conditions: 10 ng/ml GM-CSF, 5 days
Experimental: as §4

[8] = tested on: GIST430 tumor xenograft
[9] = Day 28, 10 mg/kg Single Dose IV

T1 sequence (P10721 with tags, fused parts or gaps isoform P10721-2): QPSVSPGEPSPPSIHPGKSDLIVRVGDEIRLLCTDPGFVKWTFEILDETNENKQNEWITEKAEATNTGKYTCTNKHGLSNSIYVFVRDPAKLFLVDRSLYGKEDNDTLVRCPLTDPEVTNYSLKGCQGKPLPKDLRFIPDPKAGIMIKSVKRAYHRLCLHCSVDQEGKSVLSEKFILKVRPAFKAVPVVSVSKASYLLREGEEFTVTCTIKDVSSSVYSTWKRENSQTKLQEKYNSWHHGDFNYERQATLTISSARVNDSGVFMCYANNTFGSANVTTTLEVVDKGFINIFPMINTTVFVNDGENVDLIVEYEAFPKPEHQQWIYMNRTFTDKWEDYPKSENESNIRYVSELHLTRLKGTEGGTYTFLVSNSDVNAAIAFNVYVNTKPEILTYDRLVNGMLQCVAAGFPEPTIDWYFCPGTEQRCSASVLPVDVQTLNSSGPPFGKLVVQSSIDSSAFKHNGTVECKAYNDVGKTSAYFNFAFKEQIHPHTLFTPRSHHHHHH

Molecule | Affinity human cKIT (nM) [1] | Affinity mouse cKIT (nM) [2] | reduction of cell proliferation [3] | inhibition of cell proliferation [4] | internalization of surface cKIT [5] | internalization of cKIT [6] | effect on cell proliferation [7] | Mean change of tumor volume (mm3 ± SEM) [8, 9] [mm3] | Survival (Survivors/total) [8, 9] | anti-tumor activity (tumor volume) ([8]; SCID-beige mice, single i.v. dose 10 mg/kg)
NEG024 (antibody) heavy: EVQLVESGGGLVQPGGSLRLSCAASGFTFSDYYMAWVRQAPGKGLEWVANINQIAGSTYYLDSVRGRFTISRDNAKNSLYLQMNSLRAEDTAVYYCARGDYYGTTYWYFDVWGQGTTVTVSSASTKGPSVFPLAPSSKSTSGGTAALGCLVKDYFPEPVTVSWNSGALTSGVHTFPAVLQSSGLYSLSSVVTVPSSSLGTQTYICNVNHKPSNTKVDKRV[human IgG1 Fc omitted here] light: EIVMTQSPATLSLSPGERATLSCRASQDISNYLNWYQQKPGQAPRLLIYYTSRLQSGIPARFSGSGSGTDYTLTISSLEPEDFAVYYCQQGKKLWSFGGGTKVEIKRTVAAPSVFIFPPSDEQLKSGTASVVCLLNNFYPREAKVQWKVDNALQSGNSQESVTEQDSKDSTYSLSSTLTLSKADYEKHKVYACEVTHQGLSSPVTKSFNRGEC | nanomolar level | Not reactive | very effective in reducing cell proliferation | do not inhibit cell proliferation |  |  |  |  |  | 
NEG085 (antibody) heavy: EVQLVESGGGLVQPGGSLRLSCAASGFAFSGYYMAWVRQAPGKGLEWVANINYPGSSTYYLDSVKGRFTISRDNAKNSLYLQMNSLRAEDTAVYYCARGDYYGTTYWYFDVWGQGTTVTVSSASTKGPSVFPLAPSSKSTSGGTAALGCLVKDYFPEPVTVSWNSGALTSGVHTFPAVLQSSGLYSLSSVVTVPSSSLGTQTYICNVNHKPSNTKVDKRV[human IgG1 Fc omitted here] light: DIQMTQSPSSLSASVGDRVTITCRASQSISSYLNWYQQKPGKAPKLLIYYTSRLQSGVPSRFSGSGSGTDFTLTISSLQPEDFATYYCQQGRRLWSFGGGTKVEIKRTVAAPSVFIFPPSDEQLKSGTASVVCLLNNFYPREAKVQWKVDNALQSGNSQESVTEQDSKDSTYSLSSTLTLSKADYEKHKVYACEVTHQGLSSPVTKSFNRGEC | nanomolar level | Not reactive |  |  | rapidly internalized | rapidly internalized | no detrimental effect on cell proliferation | 760 ± 119 | 8/8 | not active
